Results on 95 molecules are retold here after PubChem BioAssay AID1508624 (National Center for Advancing Translational Sciences (NCATS), 2021).

About 120 (0.25%) of roughly 48,000 compounds were called active. Another 4% or so got no clear call; they are omitted. The call rests on the fitted dose curve; in most records, active means well fitted activation curve with a large enough effect; inconclusive means small, poorly fitted or top-dose-only effect, or another doubt; inactive means no such curve, though single readings can be large or run the other way. Some of the results follow.

This test in a line: Primary qHTS for Identification of Small Molecule Activators of Huntingtin-Antisense Promoter Activity. Further: nearly all actives have a fitted effect of over 55% in size. Particulars: HEK293 HTT-AS promoter firefly luciferase reporter (activity 0% = vehicle and -100% = no light), 24 h; series mostly up to 57.5 µM; activity change, positive = activation: at the top concentration. In short, it runs like this: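 HEK293 Fluc reporter, 2,500 cells/well, 24 h pre-culture; cpds up to 57.5 uM final, 24 h 37 degrees C; Dual-Glo, 10 min RT; normalized vehicle = 0%, zero RLU = -100%.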
For orientation: qHTS replaces the single test concentration by a dilution series.
As to `CCOc1ccc(N2CC(NC(=O)c3ccc(S(=O)(=O)N4CCCC4)cc3)CC2=O)cc1` (stereo not given), the “activity change, positive = activation” value is inactive: -24.7%.
Regarding `Cc1ccc(S(=O)(=O)NC(=O)NC2CCCCC2)cc1`, the “activity change, positive = activation” value is inactive: -4.86%.
Under `COc1ccccc1CNC(=O)CCNS(=O)(=O)c1ccc2c(c1)CCCC(=O)N2` stands inactive: -6.86%; under `CCN(CC)S(=O)(=O)c1ccc2c(c1)nc(CN(C)C(=O)Nc1ccc(Cl)cc1)n2C`, inactive: 8.09%; under `CCOC(=O)c1c(C)[nH]c(C)c1S(=O)(=O)NCC(=O)NCc1ccc(C)cc1`, inactive: 6.16%.
To `Cc1ccc(Cl)cc1NC(=O)Nc1nnc(N2CCCC(C)C2)s1` (stereo not given) belongs inactive: 2.39%; to `Cn1c(=O)c2c(-c3cccc(Br)c3)n(C(C)(C)CO)cc2n(C)c1=O`, inactive: -8.48%.
Under `CCC(C(=O)NCc1ccco1)n1nc(C)c2c(C)n(-c3ccc(C)cc3)nc2c1=O` (stereo not given) stands inactive: -32.5%.
Regarding `Cc1cccc(C(=O)NCC(=O)OCc2cc(=O)n3nc(CC(C)C)sc3n2)c1`, the “activity change, positive = activation” value is inactive: 9.63%.
To `COc1cccc(C(=O)N2CCN(CCc3ccncc3)CC2)c1` belongs inactive: -17%; to `CN(C)c1ccc(CNC(=O)c2cccc(NC(=O)N3CCSc4ncccc43)c2)cc1`, inactive: -15%; to `O=C1N(Cc2ccccc2)c2ccc(Cl)cc2C1(O)c1c[nH]c2ccccc12` (stereo not given), inactive: -18%.
To `Cc1cc2nc(-c3ccc(OCc4ccccc4Cl)cc3)cc(C(F)(F)F)n2n1` belongs inactive: -4.59%.
Under `COc1ccccc1NC(=O)Cn1c(SCC(=O)N(C)c2ccccc2)nc2ccccc21` stands inactive: -33.5%; under `Cc1ccc(NS(=O)(=O)c2ccc3c(c2)n(C)c(=O)n3C)cc1C`, inactive: -20.8%.
Regarding `Cc1ccc(S(=O)(=O)NC2(C(F)(F)F)NC(=O)N(CCc3ccccc3)C2=O)cc1` (stereo not given), the “activity change, positive = activation” value is inactive: -12.2%.
To `COc1cccc2c1cc1c(=O)n(CC(=O)N3CCN(c4ccc(Cl)cc4)CC3)nc(C)n12` belongs inactive: 0.152%; to `Fc1ccc(Nc2ncnc3onc(-c4cccc(Cl)c4)c23)c(F)c1`, inactive: -9.33%; to `O=C(NCCn1cc(SCc2ccccc2Cl)c2ccccc21)c1cccs1`, inactive: -23.3%.
Take `Cc1cc(C)cc(NC(=O)Cn2cc(S(=O)(=O)NC(C)(C)C)c(S(=O)(=O)NC(C)(C)C)c2)c1`: the “activity change, positive = activation” value is inactive: -47.1%.
With `N#CC(c1ccnc(NCCc2cccnc2)n1)c1nc2ccccc2s1` (stereo not given), the “activity change, positive = activation” value was inactive: -29.7%.
For `CCOc1ccccc1NC(=O)CSc1nnc2[nH]c(=O)cc(-c3ccccc3)n12`, the “activity change, positive = activation” value is inactive: 23.3%.
For `O=C(Nc1ccccc1Cl)C1CCN(c2nc3ccccc3nc2C(F)(F)F)CC1`, the “activity change, positive = activation” value was inactive: -3.68%.
On to `CCN1CCN(Cc2nc3cc(NC(=O)c4cc(OC)c(OC)c(OC)c4)ccc3n2CC)CC1`, for which the “activity change, positive = activation” value was inactive: -0.0085%.
Under `Cc1ccc(CNC(=O)N2CCC(CN3CCC(C)CC3)CC2)cc1` stands inactive: -6.46%.
To `COc1ccc(S(=O)(=O)n2nc(-c3ccco3)nc2NCc2ccc(N(C)C)cc2)cc1` belongs inactive: -10.5%; to `COc1ccc(S(=O)(=O)c2cn(CC(=O)Nc3cc(C)ccc3C)c3ccccc3c2=O)cc1`, inactive: 7.09%.
`CCC1CN(C(=O)NCc2ccc(C)cc2)c2cc(Cl)ccc2O1` (stereo not given): the “activity change, positive = activation” value was inactive: -29.8%.
Under `COc1ccc(NC(=O)Cn2cnc3sc(C)c(S(=O)(=O)N4CCN(c5ccccc5OC)CC4)c3c2=O)cc1OC` stands inactive: 10.7%; under `CC(C)c1ccc(NC(=O)CN2C(=O)COc3ccc(S(=O)(=O)N4CCCCC4)cc32)cc1`, inactive: -31.8%; under `Cc1ccc2scc(N3CCc4ccccc4C3)c(=O)c2c1`, inactive: 21.3%.
Turning to `Cc1ccc(C)c(N2CCN(C(=O)Cn3ncc4c(=O)oc5ccccc5c43)CC2)c1`, the “activity change, positive = activation” value was inactive: -1.47%.
In the case of `COc1cc(OC)cc(-c2nc3nc(C)c(CCC(=O)Nc4ccc(C)c(C)c4)c(C)n3n2)c1`, the “activity change, positive = activation” value was inactive: -7.92%.
For the molecule `Cc1cc(-c2nc3ncccc3o2)ccc1NC(=O)COc1ccccc1C`, the “activity change, positive = activation” value was inactive: 30.6%.
Turning to `CCOC(=O)c1ccccc1NC(=O)CSc1ccc(-c2cccs2)nn1`, the “activity change, positive = activation” value is inactive: -23.4%.
To `O=c1c2oc3ccccc3c2n(Cc2cccc(Cl)c2)c(=O)n1Cc1ccco1` belongs inactive: -41.6%; to `Cc1ccc2occ(CC(=O)N(Cc3ccc(Cl)cc3)C3CCS(=O)(=O)C3)c2c1` (stereo not given), inactive: -24.1%; to `COc1ccc(-c2cc(C(F)(F)F)nc(SCCC(=O)Nc3ccccc3F)n2)cc1`, inactive: -5.69%.
Under `O=C(Cc1ccccc1)NC1CC(=O)N(c2ccccc2)C1` (stereo not given) stands inactive: -13.6%.
For `Cn1cc(S(=O)(=O)c2cccc(Cl)c2)c(=O)c2cc(F)c(N3CCN(c4ccc(F)cc4)CC3)cc21`, the “activity change, positive = activation” value was inactive: 3.6%.
To `Cc1ccc(-c2noc(CNS(=O)(=O)c3ccc(F)cc3)n2)cc1` belongs inactive: -21.4%.
Under `CCc1ccc(Nc2nn(-c3ccc(OC(F)(F)F)cc3)nc2C(C)=O)cc1` stands inactive: 0.637%; under `COc1ccccc1N1CCN(C(=O)CN2C(=O)COc3ccc(S(=O)(=O)N4CCCCCC4)cc32)CC1`, inactive: -14%.
`Cc1cccc(OCC(=O)Nc2nc3c(s2)CC(C(C)(C)C)CC3)c1C` (stereo not given): the “activity change, positive = activation” value was inactive: -8.21%.
Under `CCN(CC)c1ccc(NC(=O)c2cnc3c(-c4ccccc4)c(C)nn3c2C)c(C)c1` stands inactive: -23.9%.
To `Cc1c(NC(=O)c2cc(-c3ccc(F)cc3)on2)c(=O)n(-c2ccccc2)n1C` belongs inactive: -3.82%; to `Cc1nnc(N2CCN(C(=O)NC(C)C)CC2)c2nn(-c3ccccc3)c(C)c12`, inactive: 6.02%; to `COc1ccc(CNC(=O)CN2C(=O)COc3ccc(S(=O)(=O)Nc4ccccc4)cc32)cc1`, inactive: -20.6%.
Under `CCOC(=O)c1cc2c(=O)n3ccccc3nc2n(C(C)C)c1=NC(=O)c1cc2ccccc2o1` stands inactive: 5.95%; under `O=C(Nc1ccc(F)c(F)c1)c1cc(S(=O)(=O)NC2CCCCCC2)ccc1F`, inactive: -38.2%.
As for `CCc1ccc(C(=O)c2cn(CC(=O)NC3CCCCC3)c3nc(C)ccc3c2=O)cc1`, the “activity change, positive = activation” value is inactive: -16.5%.
To `O=C(c1ccccc1)n1nc(-c2ccccc2)nc1NCc1ccc(F)cc1` belongs inactive: 18.3%.
Under `COc1ccc(-n2nc(C(=O)N3CCCC(C)C3)c3c4ccccc4n(C)c3c2=O)cc1` (stereo not given) stands inactive: -13.9%.
To `COc1ccc(-c2cc(C(F)(F)F)nc(S(C)(=O)=O)n2)cc1` belongs inactive: -93.9%.
In the case of `CCOC(=O)c1sc2ccccc2c1S(=O)(=O)Nc1ccc(CC)cc1`, the “activity change, positive = activation” value was inactive: -35.6%.
Under `CNC(=O)c1c(NC(=O)c2ccc(S(=O)(=O)N3CCCCC3)cc2)sc2c1CCC2` stands inactive: -17.6%; under `CCOc1ccc(N2CC(NC(=O)/C=C\c3ccc4c(c3)OCO4)CC2=O)cc1` (stereo not given), inactive: -13%.
Under `COc1ccc(-n2ccnc(NCc3ccccc3OC)c2=O)cc1` stands inactive: -7.37%; under `O=S(=O)(Nc1cc(F)ccc1F)c1ccc2[nH]c3c(c2c1)CCCC3`, inactive: -25.9%.
In the case of `NS(=O)(=O)c1ccc(CCNc2nccn(-c3cccc(C(F)(F)F)c3)c2=O)cc1`, the “activity change, positive = activation” value was inactive: -26.5%.
With `CSc1nc2c(c(=O)[nH]1)C(c1cccc(F)c1F)CC(=O)N2` (stereo not given), the “activity change, positive = activation” value is inactive: -10.4%.
On to `CC(C)(C)C(=O)Nc1ccc2nc(SCC(=O)N3CCOCC3)sc2c1`, for which the “activity change, positive = activation” value is inactive: -7.61%.
Under `COc1cccc(CNC(=O)c2ccc3c(c2)c(C)c(C)n3Cc2ccccc2)c1OC` stands inactive: -18.7%; under `CC(C)c1ccc(NC(=O)CS(=O)(=O)c2cccc3nsnc23)cc1`, inactive: -3.96%; under `CCCCN(CCCC)CCNC(=O)Cn1nc(C)n2c(cc3sccc32)c1=O`, inactive: -14.9%.
Under `COc1ccc(NS(=O)(=O)c2cc(Br)cc3c2N(C(=O)C2CC2)CC3)cc1OC` stands inactive: -43.9%; under `CCCCNC(=O)c1nn(-c2ccc(CC)cc2)nc1CO`, inactive: 2.69%; under `Cc1cccc(NC(=O)C2CCN(S(=O)(=O)c3ccc(F)cc3)CC2)c1C`, inactive: -12.9%.
To `CC1CCC(NC(=O)c2ccc3c(c2)N(Cc2cccc(Cl)c2)C(=O)c2ccccc2S3(=O)=O)CC1` (stereo not given) belongs inactive: 12.1%.
In the case of `CCc1ccccc1NC(=O)Cn1nnc(C(=O)NCc2ccccc2Cl)c1N`, the “activity change, positive = activation” value is inactive: -31%.
Under `CCN(CC)CC(C)CNC(=O)c1cc(-c2ccc(Br)s2)nc2ccccc12` (stereo not given) stands inactive: -18.9%; under `COc1cccc(CN(C(=O)c2oc3cc(C)ccc3c2C)C2CCS(=O)(=O)C2)c1` (stereo not given), inactive: -13.1%.
Consider `CCOC(=O)c1ccc(NS(=O)(=O)c2ccc3c(c2)n(C)c(=O)n3C)cc1`, for which the “activity change, positive = activation” value is inactive: -33.5%.
Consider `CCOc1ccc(NC(=O)C2CC(=O)N(c3ccc(C(C)C)cc3)C2)cc1` (stereo not given), for which the “activity change, positive = activation” value was inactive: -2.49%.
On to `Cn1c(=O)n(-c2ccc3c(c2)OCO3)c2nc(-c3ccccc3)nc(C(N)=O)c21`, for which the “activity change, positive = activation” value is inactive: -9.06%.
To `Cc1cc(C)cc(NC(=O)CSc2cc(C)[nH]c(=O)n2)c1` belongs inactive: -19.5%; to `COc1cccc2c1cc1c(=O)n(CC(=O)N3CCN(c4cccc(C)c4)C(C)C3)nc(C)n12` (stereo not given), inactive: -4.62%.
To `CCCC1=Nc2cc(C(=O)NC3CCCC3)ccc2Sc2ccc(C)cc21` belongs inactive: -32.1%; to `CCOC(=O)CC(NC(=O)Cn1nnc(-c2ccc(C(F)(F)F)cc2)n1)c1ccc(OC)cc1` (stereo not given), inactive: -24.6%.
`CC(=O)Nc1ccc(-c2cc(C(=O)O)c3c(-c4ccccc4)[nH]nc3n2)cc1`: the “activity change, positive = activation” value is inactive: -7.2%.
As to `COc1ccc(C(=O)N2CCN(Cc3cc(=O)n4nc(-c5ccccc5C)sc4n3)CC2)cc1OC`, the “activity change, positive = activation” value was inactive: -18.6%.
To `C[C@@H](O[C@H]1OCCN(Cc2n[nH]c(=O)[nH]2)[C@@H]1c1ccc(F)cc1)c1cc(C(F)(F)F)cc(C(F)(F)F)c1` belongs inactive: -48.4%.
Under `Cc1c(C)c2c(cc(C)c3c(-c4ccccc4)coc32)oc1=O` stands inactive: -12.3%; under `O=C(NC1CC(=O)N(c2cccc(F)c2)C1)C1CCCC1` (stereo not given), inactive: -9.05%; under `COc1cc(-c2nc(Cn3nnc(C(=O)Nc4ccccc4)c3C)c(C)o2)cc(OC)c1OC`, inactive: -29.4%.
To `Cc1ccc(CNC(=O)c2cccn2-c2nnc(N3CCCCC3)s2)cc1` belongs inactive: -3.68%.
Regarding `COc1ccccc1-n1ncc2c(=O)[nH]c(SCC(=O)Nc3ccc(Cl)cc3)nc21`, the “activity change, positive = activation” value was inactive: -24%.
Under `O=C(Nc1cc2c(cc1C(=O)c1ccccc1)OCCO2)c1ccc(Br)cc1` stands inactive: -5.98%.
Under `CN(C)CCN(Cc1ccccc1)S(=O)(=O)c1ccc2[nH]c(=O)ccc2c1` stands inactive: -26.5%; under `O=C(c1cccn1-c1nnc(N2CCCC2)s1)N1CCN(c2ccccc2)CC1`, inactive: -3.59%.
To `CCOC(=O)COc1ccc2c(C)c(CCN(CC)CC)c(=O)oc2c1Cl` belongs inactive: -1.05%; to `Cc1ccccc1-c1nc(SCC(=O)NCc2ccco2)c2c(=O)n(C)c(=O)n(C)c2n1`, inactive: 6.41%; to `COc1ccc2oc(=O)c(-c3csc(-c4ccc(Br)cc4)n3)cc2c1`, inactive: 0.734%.
With `COc1cccc(-n2cc(C(=O)NCCc3ccc(C)cc3)c3ccccc3c2=O)c1`, the “activity change, positive = activation” value was inactive: -27.4%.
To `CCN(CC)CCCNC(=O)CN1C(=O)CCn2nc(-c3cn(C)c4ccccc34)cc21` belongs inactive: -4.38%.
